Data on 31 compounds can be found in PubChem BioAssay AID1745853 (National Center for Advancing Translational Sciences (NCATS), 2022).

Each structure is given as a SMILES string. This is one part of the list. Shown are side measurements of this screen, not its main read-out; they come without a call.

Assay in all cases: Primary Screen for Target Class Profiling of Small Molecule Inhibitors of Methyltransferases
The target of experiment [1] is Glycine N-methyltransferase (Homo sapiens) (UniProt Q14749). As to conditions: purified enzyme, MTase-Glo SAH luminescence; measured here: GNMT inhibition; at 40 µM; stronger effect = lower value. In a few lines: (§1)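 Each enzyme was assayed with SAM and its substrate. SAH formation detected by MTase-Glo luminescence; single-point 40 uM screen[…].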
For experiment [2], the target named is Guanidinoacetate N-methyltransferase (Homo sapiens) (UniProt Q14353). To be noted: purified enzyme, MTase-Glo SAH luminescence; measured here: GAMT inhibition; at 40 µM; stronger effect = lower value. Summed up:
as §1

Experiment [3] has as its target Histamine N-methyltransferase (Homo sapiens) (UniProt P50135). As to conditions: purified enzyme, MTase-Glo SAH luminescence; measured here: HNMT inhibition; at 40 µM; stronger effect = lower value. In a few lines: as §1
Experiment [4] has as its target Nicotinamide N-methyltransferase (Homo sapiens) (UniProt P40261). To be noted: purified enzyme, MTase-Glo SAH luminescence; measured here: NNMT inhibition; at 40 µM; stronger effect = lower value. Summed up: as §1
For experiment [5], the target named is Phenylethanolamine N-methyltransferase (Homo sapiens) (UniProt P11086). To be noted: purified enzyme, MTase-Glo SAH luminescence; measured here: PNMT inhibition; at 40 µM; stronger effect = lower value. In a few lines: as §1
% is set by controls: 0 for no effect and ±100 for the full control effect.

Regarding `CCN(CC)c1cc(CCC(=O)NCc2cc(F)ccc2F)ccn1`, the activity change, negative = inhibition in experiment [1] is -3.83%; in experiment [2] it was -8.41%; in experiment [3] it was -32.5%; in experiment [4] it was -11.5%; in experiment [5], -9.99%.

As to `Cc1cc(Cl)ccc1OCC(=O)N[C@@H]1CCOC[C@H]1OCC(=O)O`, the activity change, negative = inhibition in experiment [1] is -2.25%; in experiment [2] it was -6.29%; in experiment [3], -1.4%; in experiment [4], -8.12%; in experiment [5] it was -4.18%.

`Cc1ccc(C(=O)Cn2nc3n(C)c(=O)c4ccc(C(=O)NC5CCCC5)cc4n3c2=O)c(C)c1`: the activity change, negative = inhibition in experiment [1] worked out at 6.3%; in experiment [2], 0%; in experiment [3], 3.74%; in experiment [4], 1.11%; in experiment [5], 4.38%.

Consider `CCN(CC)c1cc(CCC(=O)N2CCC(C)CC2)ccn1`, for which the activity change, negative = inhibition in experiment [1] is 0.276%; in experiment [2], -1.74%; in experiment [3] it was -33.1%; in experiment [4], -2.13%; in experiment [5] it was 0.273%.

`COc1cccc(N2C(=O)c3cc4occc4n3CC2(C)C(=O)NC2CCC(C)CC2)c1` (stereo unspecified): the activity change, negative = inhibition in experiment [1] was -8.27%; in experiment [2], 3.25%; in experiment [3], -10.6%; in experiment [4], -2.51%; in experiment [5], -7.85%.

In the case of `COc1cccc(CN2C(=O)c3cc4occc4n3CC2(C)C(=O)NC2CCCC(C)C2C)c1OC` (stereo unspecified), the activity change, negative = inhibition was -10.6% in experiment [1]; -0.029% in experiment [2]; -2.54% in experiment [3]; -9.27% in experiment [4]; -5.31% in experiment [5].

In the case of `CC(Oc1ccc2[nH]nc(/C=C/c3cnn(CCO)c3)c2c1)c1c(Cl)cncc1Cl` (stereo unspecified), the activity change, negative = inhibition in experiment [1] was -14.8%; in experiment [3] it was -11.5%.

As for `COCCCNc1nc2c(-c3cccc(F)c3)nnn2c2ccc(Cl)cc12`, the activity change, negative = inhibition was found to be 3.52% in experiment [1]; 0.792% in experiment [2]; 10.6% in experiment [3]; 6.45% in experiment [4]; 2.43% in experiment [5].

Take `Cc1ccc([C@H]2Nc3ccc(S(=O)(=O)Nc4cccc(Cl)c4C)cc3[C@H]3C=CC[C@H]32)cc1`: the activity change, negative = inhibition was -9.9% in experiment [1]; -10.2% in experiment [2]; -18.8% in experiment [3]; -26.6% in experiment [4]; -11.9% in experiment [5].

Take `CCc1ccc(N2C(=O)c3cc(C(C)(C)C)nn3CC2(C)C(=O)NCc2ccccc2)cc1` (stereo unspecified): the activity change, negative = inhibition was -5.74% in experiment [1]; 0% in experiment [2]; -2.22% in experiment [3]; -6.64% in experiment [4]; -1.68% in experiment [5].

Take `Cc1cnc(C(=O)NC2C[C@H]3CC[C@@H](C2)N3S(=O)(=O)c2ccc(C)c(F)c2)cn1` (stereo partly specified): the activity change, negative = inhibition in experiment [1] is -6.25%; in experiment [2], -5.8%; in experiment [3] it was -3.91%; in experiment [4] it was -14.9%; in experiment [5] it was -17.9%.

Regarding `CC(=O)Nc1ccc(CN2CC(Oc3ccc4c(c3)OCO4)C2)cc1`, the activity change, negative = inhibition in experiment [1] was -6.5%; in experiment [2], -9.84%; in experiment [3], -4.34%; in experiment [4], -13.1%; in experiment [5] it was -10.6%.

Take `CS(=O)(=O)CCNCc1ccc(-c2ccc3ncnc(Nc4ccc(OCc5cccc(F)c5)c(Cl)c4)c3c2)o1`: the activity change, negative = inhibition in experiment [1] is -3.98%; in experiment [2] it was 3.2%; in experiment [3], 1.2%; in experiment [4], -7.85%; in experiment [5], 1.39%.

Take `CN(CCCNC(=O)C1(CCO)CC12CCOCC2)C1CCCCC1` (stereo unspecified): the activity change, negative = inhibition was -3.06% in experiment [1]; -2.36% in experiment [2]; -2.32% in experiment [3]; -0.81% in experiment [4]; 1.8% in experiment [5].

Consider `C=CC(=O)Nc1cccc(Nc2nc(Nc3ccc(N4CCN(C(C)=O)CC4)cc3OC)ncc2C(F)(F)F)c1`, for which the activity change, negative = inhibition in experiment [1] is -19.2%; in experiment [2], 0.484%; in experiment [3] it was -26.2%; in experiment [4], -14.3%; in experiment [5], -16%.

Regarding `C/C(=N\N=C(N)N)c1ccc(NC(=O)Nc2ccc(/C(C)=N/N=C(N)N)cc2)cc1`, the values for the activity change, negative = inhibition in experiment [2], in experiment [4] and in experiment [5] were -22.5%, -30.9% and -26.4%, respectively.

Regarding `COCCNS(=O)(=O)c1cc(C(=O)O)cc(-c2ccncc2)c1`, the activity change, negative = inhibition in experiment [1] was -4.25%; in experiment [2], -1.65%; in experiment [3], 0.41%; in experiment [4] it was -4.95%; in experiment [5] it was 7.6%.

For the compound `O=C1Cc2c([nH]c3ccc([N+](=O)[O-])cc23)-c2ccccc2N1`, the figures for the activity change, negative = inhibition in experiment [2], in experiment [4] and in experiment [5] were -4%, -21.3% and -3.26%, respectively.

Consider `OCC1=C[C@@H](O)[C@@H]2C=CO[C@@H](O[C@@H]3O[C@H](CO)[C@@H](O)[C@H](O)[C@H]3O)[C@H]12`, for which the activity change, negative = inhibition in experiment [1] is 4.7%; in experiment [2] it was 7.33%; in experiment [3] it was 6.04%; in experiment [4], -5.08%; in experiment [5] it was 3.33%.

Consider `Cc1ccc(NC(=O)C(C)C)cc1C1CCN(Cc2ccc(Oc3ccc(F)c(F)c3)cc2)CC1`, for which the activity change, negative = inhibition in experiment [1] is -7.42%; in experiment [2] it was -8.53%; in experiment [3] it was 3.47%; in experiment [4] it was -32.9%; in experiment [5], -7.73%.

Consider `C=CCc1cc(OC)c(OC(C)C(O)c2ccc(O)c(OC)c2)c(OC)c1` (stereo unspecified), for which the activity change, negative = inhibition in experiment [1] was 1.3%; in experiment [2], 2.36%; in experiment [3] it was 7.6%; in experiment [4] it was -10.8%; in experiment [5] it was -4.41%.

As for `COc1ccccc1NC(=O)Nc1cccc(-c2nnc3n2CCCC3)c1`, the activity change, negative = inhibition in experiment [1] is -10.3%; in experiment [2], -6.04%; in experiment [3], -19%; in experiment [4], -13.6%; in experiment [5] it was -4.96%.

In the case of `COc1ccccc1C(CC(=O)NCC(C)C)c1cn(C)c2ccccc12` (stereo unspecified), the activity change, negative = inhibition is -7.06% in experiment [1]; -7.39% in experiment [2]; -5.96% in experiment [3]; -10.2% in experiment [4]; -10.4% in experiment [5].

Turning to `CO[C@@H]1COCC[C@@H]1N[C@@H]1CC[C@@](C(=O)N2CCc3ncc(C(F)(F)F)cc3C2)(C(C)C)C1`, the activity change, negative = inhibition was -4.35% in experiment [1]; -10.9% in experiment [2]; 7.46% in experiment [3]; -13.8% in experiment [4]; -2.56% in experiment [5].

Regarding `O=c1[nH]cnc2c([C@@H]3N[C@H](CO)[C@@H](O)[C@H]3O)c[nH]c12`, the activity change, negative = inhibition in experiment [1] was -4.22%; in experiment [2] it was -8.65%; in experiment [3] it was -2.21%; in experiment [4] it was -19.4%; in experiment [5], -3.6%.

Regarding `COc1ccc(CCNCc2ccc(OCc3ccc(Cl)nc3)c(OC)c2)cc1OC`, the activity change, negative = inhibition in experiment [2] is 12.2%; in experiment [4] it was -7.78%; in experiment [5], 2.79%.

Consider `Cc1noc(C)c1S(=O)(=O)N1CCC2(C1)C(=O)N(c1ccccc1)c1ccccc12` (stereo unspecified), for which the activity change, negative = inhibition in experiment [1] was -3.48%; in experiment [2] it was -1.65%; in experiment [3], -2.71%; in experiment [4] it was -7.75%; in experiment [5], -13%.

In the case of `O=S(=O)(c1cccc2c(I)cccc12)N1CCCNCC1`, the activity change, negative = inhibition in experiment [1] was -3.1%; in experiment [2] it was 8.17%; in experiment [3], 2.27%; in experiment [4], -18.2%; in experiment [5], -3.93%.

Take `CC1(C(=O)NC2CCCCC2)Cn2c(cc3occc32)C(=O)N1Cc1ccc(F)cc1` (stereo unspecified): the activity change, negative = inhibition in experiment [1] was 4.77%; in experiment [2] it was -14.7%; in experiment [3] it was 7.69%; in experiment [4] it was 10.7%; in experiment [5], 3.76%.

For the compound `COc1ccc(-c2cc3nc4c(c(=O)n3[nH]2)CN(S(=O)(=O)c2cccs2)CC4)cc1`, the activity change, negative = inhibition in experiment [1] was -21.7%; in experiment [2], -18.6%; in experiment [3], -39%; in experiment [4], -14.4%; in experiment [5], -47.9%.

In the case of `Cc1nn(C)cc1CN(C)C(=O)c1cc2cn(C(C)C)cc2s1`, the activity change, negative = inhibition in experiment [1] was -7.99%; in experiment [2], -2.62%; in experiment [3], -3.35%; in experiment [4], 0.959%; in experiment [5], -14.8%.
